Experimental data published in the BET-seq Pho4 binding data (Le et al. 2018).
Some of the results follow. Values were computed here from the reads of four pooled replicates and scatter widely.

The sequences below were run against T1, Pho4 (S. cerevisiae) (UniProt P07270) (assay: relative binding free energy (BET-seq); higher = weaker binding). Conditions: reference: library average.
T1 sequence: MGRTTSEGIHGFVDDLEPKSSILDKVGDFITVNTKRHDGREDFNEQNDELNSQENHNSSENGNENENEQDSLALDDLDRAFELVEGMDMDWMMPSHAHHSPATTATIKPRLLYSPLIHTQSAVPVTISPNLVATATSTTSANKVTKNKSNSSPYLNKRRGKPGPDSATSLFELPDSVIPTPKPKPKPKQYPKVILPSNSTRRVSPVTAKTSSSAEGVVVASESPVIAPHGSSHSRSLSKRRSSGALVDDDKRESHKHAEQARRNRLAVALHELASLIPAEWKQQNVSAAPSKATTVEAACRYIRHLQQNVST

Sequence | relative binding free energy [kcal/mol]
ATCGGCACGTGTTTGA | 0
GCGTTCACGTGGGGCG | 0.07
TAGATCACGTGTTTAG | 0.05
CGTGGCACGTGGCGTT | -0.13
TTGAGCACGTGACGTG | 0.06
TTTTTCACGTGATCTG | 0.27
ATGGCCACGTGATTGT | -0.01
TTCGTCACGTGGGAGC | -0.03
TAAGTCACGTGTTACG | 0.01
TAAATCACGTGGGGGT | 0.03
GATGGCACGTGGCGTA | -0.14
AGGAACACGTGAAAGT | 0.39
AGTGACACGTGCAAGT | -0.02
ATAAGCACGTGATGGG | -0.01
GAAGTCACGTGTTTGA | 0.23
TTCTACACGTGTATTG | 0.01
CGTTGCACGTGGGATT | -0.03
TTAATCACGTGAAGTA | 0.33
AACGTCACGTGTTGAG | 0.2
GGTATCACGTGTATAA | 0.2
AGGTGCACGTGGTATT | -0.11
TGATGCACGTGTGAGG | 0.02
ATTGACACGTGTAAGT | 0.12
TTATGCACGTGGTGGT | -0.09
CGGTACACGTGGTACG | 0

Sequence | relative binding free energy [kcal/mol]
CGTATCACGTGTATTA | 0.07
ATGGTCACGTGCTTTG | 0.01
ATGTTCACGTGTGTTT | 0.27
TAGTCCACGTGGTTGT | 0.03
GGTTGCACGTGGGTCT | -0.22
CAGAGCACGTGGGGGG | -0.33
TTGGTCACGTGGAGAC | 0.11
CGTGGCACGTGGTAAT | -0.17
AGGCGCACGTGGGATG | -0.35
ATATTCACGTGAAAGT | 0.37
AGTGGCACGTGGCAGT | -0.21
AGTTTCACGTGTGACA | 0.37
GTATCCACGTGTTTTA | 0.08
AGTAGCACGTGAAGCG | 0.36
ATGGGCACGTGGACGT | -0.13
TGGATCACGTGAGAAG | 0.39
TTTGTCACGTGGTTAA | 0.02
TGAATCACGTGGAATG | 0.23
TGTTACACGTGGATAG | 0.04
TTCTACACGTGATGGT | 0.21
TGTAACACGTGGAGGT | 0.03
GAGGGCACGTGTTGGT | 0.02
ATGTTCACGTGGTTAT | 0.29
TTTGCCACGTGATGGT | 0.09
ATGCGCACGTGTATTT | -0.13

Sequence | relative binding free energy [kcal/mol]
CGGGGCACGTGTGCGA | -0.22
AGCCGCACGTGGTAGG | -0.15
TTTATCACGTGGGGCA | 0.06
GGTTTCACGTGGTTTA | 0.3
GGCTTCACGTGTTAGT | 0.27
ACGGGCACGTGTATGG | -0.12
ATGTACACGTGTGGAT | 0.12
GGTGGCACGTGTTAGC | -0.02
TGGTGCACGTGTCTTG | -0.04
TTCGTCACGTGCTTTT | 0.01
TAAGGCACGTGTAGCG | -0.06
CGTTTCACGTGTGGTG | 0.08
TATTTCACGTGCGTGA | -0.02
GTGGTCACGTGATAGC | 0.16
GTTTACACGTGGCTTT | 0.19
GTGGACACGTGTATTG | 0.13
GGAAACACGTGGTGAG | 0.05
AGGATCACGTGATGAT | 0.3
CAACGCACGTGGTGGG | -0.14
CTATGCACGTGTCTGT | 0.04
GTCGGCACGTGTCTTG | 0.09
GCGTGCACGTGCGTGT | -0.25
GATTACACGTGGGACT | 0.18
